{
  "source": "PubChem BioAssay AID1461",
  "about": "(National Center for Advancing Translational Sciences (NCATS), 2008)",
  "note": "About 2,300 (1%) of roughly 220,000 compounds were called active. The inconclusive results got no clear call from the source; some entries with a clear call stand among them for comparison. The call rests on the fitted dose curve; in most records, active means well fitted inhibition curve with a large enough effect; inconclusive means small, poorly fitted or top-dose-only effect, or effect the other way; inactive means no such curve, though single readings can be large or run the other way. No potency is given beside an inconclusive call; the fits are too rough. Potency means the concentration at half of the fitted maximal effect; tags describe the fitted curve by direction and shape.",
  "data": [
    {"biological_target": "Neuropeptide S receptor (Homo sapiens) (UniProt Q6W5P4)", "sequence (Q6W5P4 whole entry, looked up)": "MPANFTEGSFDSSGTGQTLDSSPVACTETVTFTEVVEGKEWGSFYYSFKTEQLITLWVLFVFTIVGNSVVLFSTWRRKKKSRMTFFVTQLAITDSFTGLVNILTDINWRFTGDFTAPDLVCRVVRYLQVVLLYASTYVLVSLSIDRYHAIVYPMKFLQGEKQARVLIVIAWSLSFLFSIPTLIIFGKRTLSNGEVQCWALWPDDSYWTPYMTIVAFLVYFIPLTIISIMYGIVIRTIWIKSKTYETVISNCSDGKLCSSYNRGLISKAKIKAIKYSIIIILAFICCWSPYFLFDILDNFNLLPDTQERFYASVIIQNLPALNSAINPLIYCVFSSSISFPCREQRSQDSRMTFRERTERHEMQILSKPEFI", "experiment": "qHTS Assay for Antagonists of the Neuropeptide S Receptor: cAMP Signal Transduction; further: nearly all actives have a fitted effect of over 50% in size", "conditions": "CHO-NPSR cells, cAMP TR-FRET, antagonist mode; series mostly up to 38.3 µM", "values": [
      {"smiles": "CCOC(=O)c1[nH]c2ccc(Br)cc2c1NC(=O)CCN1CCCC(C)C1", "note": "(stereo not drawn)", "Potency": "inactive"},
      {"smiles": "CC(Cc1cccs1)NC(=O)Nc1cccc(Cl)c1", "note": "(stereo not drawn)", "Potency": "inconclusive [inhibitor, single point]"},
      {"smiles": "COc1ccccc1/C=C/CN1CCCC(CO)(Cc2cccc(Cl)c2)C1", "note": "(stereo not drawn)", "Potency": "inconclusive [activator, partial curve]"},
      {"smiles": "CN1/C(=C\\C(=O)Nc2ccc(F)cc2)C(C)(C)c2ccccc21", "Potency": "inactive"},
      {"smiles": "CCCOc1ccc(NC(=O)CC2C(=O)N(CC)C(=S)N2CCCN2CCN(Cc3ccccc3)CC2)cc1", "note": "(stereo not drawn)", "Potency": "inconclusive [inhibitor, single point]"},
      {"smiles": "Cc1ccc(C2C(C#N)=C(N)N(N(C)C)C3=C2C(=O)CCC3)cc1", "note": "(stereo not drawn)", "Potency": "inactive"},
      {"smiles": "Cc1nc(SCC(=O)Nc2ccc3c(c2)OCO3)c(C#N)c2c1CCCC2", "Potency": "inconclusive [inhibitor, single point]"},
      {"smiles": "COc1ccc(CCN2C(=S)NC3CC2(C)Oc2ccc([N+](=O)[O-])cc23)cc1OC", "note": "(stereo not drawn)", "Potency": "inactive"},
      {"smiles": "NC(=O)C1CCN(c2nnnn2-c2ccccc2)CC1", "Potency": "inconclusive [inhibitor, single point]"},
      {"smiles": "Cc1c(C(=O)/C=C/N(C)C)nnn1-c1ccc(Cl)cc1Cl", "Potency": "inactive"},
      {"smiles": "CCOc1ccccc1C1CC(=O)Nc2cc3c(cc21)OCCO3", "note": "(stereo not drawn)", "Potency": "inconclusive [activator, partial curve]"},
      {"smiles": "Cc1ccc(/C=N/NC(=O)Nc2ccccc2)o1", "Potency": "inactive"},
      {"smiles": "O=C(CN1C(=O)C2CCCCC2C1=O)N1CCN(c2ccc(F)cc2)CC1", "note": "(stereo not drawn)", "Potency": "inactive"},
      {"smiles": "O=C1C=C(c2ccc(Cl)cc2)C(=O)N1Nc1ccccc1", "Potency": "inconclusive [inhibitor, single point]"},
      {"smiles": "COc1ccc(C2c3[nH]c4ccccc4c3CCN2Cc2ccoc2)c(F)c1", "note": "(stereo not drawn)", "Potency": "inconclusive [activator, single point]"},
      {"smiles": "Cc1ccccc1-c1nc2ccccc2[nH]1", "Potency": "inconclusive [activator, single point]"},
      {"smiles": "O=C(CN1CCC(n2nnc3cc(C(F)(F)F)ccc32)CC1)Nc1ccc2c(c1)CCC2", "Potency": "inconclusive [inhibitor, single point]"},
      {"smiles": "CN(C)c1ccc(/C=C/c2cc[n+]([O-])cc2)cc1", "Potency": "inactive"},
      {"smiles": "CCOC(=O)c1cnc(SC)nc1Oc1cccc(NS(=O)(=O)c2ccccc2)c1", "Potency": "inconclusive [inhibitor, single point]"},
      {"smiles": "Brc1ccc(-c2nc(N/N=C/c3cccnc3)c3ccccc3n2)cc1", "Potency": "active: 10 µM"},
      {"smiles": "Cc1ccc(NC(=O)c2cc(-c3cccc(O)c3)on2)cc1C", "Potency": "inconclusive [inhibitor, single point]"},
      {"smiles": "O=C(NC(=S)NCc1cccnc1)c1ccc([N+](=O)[O-])cc1", "Potency": "inactive"},
      {"smiles": "Cn1nc(C(F)(F)F)c(C(=O)Nc2ccc(F)cc2F)c1Sc1cccc(C(F)(F)F)c1", "Potency": "inconclusive [inhibitor, partial curve]"},
      {"smiles": "CCCCCCCCCC(=O)NC(CN1CCOCC1)[C@H](O)c1ccccc1", "note": "(stereo partly drawn)", "Potency": "inconclusive [inhibitor, single point]"},
      {"smiles": "COc1ccc(C=O)c(OC)c1", "Potency": "inactive"},
      {"smiles": "Cc1ccc(OCC(=O)N/N=C\\c2cn(Cc3ccccc3)c3ccccc23)cc1C", "Potency": "inactive"},
      {"smiles": "O=C(CCl)N(c1ccc(Cl)cc1)c1c[nH]c2ccccc12", "Potency": "active: 7.94 µM"},
      {"smiles": "O=S(=O)(Nc1nc2ccccc2[nH]1)c1ccc(Cl)cc1", "Potency": "inconclusive [inhibitor, single point]"},
      {"smiles": "FC(F)(F)c1cc(N2CCOCC2)nc(-c2ccccc2)n1", "Potency": "inconclusive [activator, full curve, poor fit]"},
      {"smiles": "Cc1sc2ncnc(NCCCO)c2c1C", "Potency": "inactive"},
      {"smiles": "Cc1nc2c(C(=O)N3CCOCC3)cnn2c(C)c1Cc1cccc(Cl)c1", "Potency": "inactive"},
      {"smiles": "CCNc1ccc(C(=O)OCC)cc1NC(=O)c1cccc(N(C)C)c1", "Potency": "inconclusive [inhibitor, single point]"},
      {"smiles": "CCN1CCN(Cc2c(O)ccc3c2O/C(=C\\c2ccccc2)C3=O)CC1", "Potency": "inconclusive [inhibitor, single point]"},
      {"smiles": "COc1ccc2c(c1)NC(c1ccc(N(C)C)cc1)c1cccn1-2", "note": "(stereo not drawn)", "Potency": "inconclusive [activator, partial curve]"},
      {"smiles": "Cc1oc(-c2ccccc2F)nc1CS(=O)CC(=O)NCc1cccs1", "note": "(stereo not drawn)", "Potency": "inactive"},
      {"smiles": "COc1ccc(/C=N/c2c(-c3ccc(OC)cc3)nc3n2CCS3)cc1", "Potency": "inconclusive [inhibitor, partial curve]"},
      {"smiles": "c1ccc(-n2ncc3c(NCc4ccco4)ncnc32)cc1", "Potency": "inconclusive [inhibitor, full curve, poor fit]"},
      {"smiles": "O=C(Nc1ccc(Br)cc1F)c1sccc1-n1cccc1", "Potency": "inconclusive [inhibitor, full curve, poor fit]"},
      {"smiles": "Cc1oc(-c2ccccc2Cl)nc1CSCC(=O)N1CCCC1", "Potency": "inactive"},
      {"smiles": "O=S(=O)(NC1CCCCC1)c1ccc(F)c2ccccc12", "Potency": "inconclusive [inhibitor, single point]"},
      {"smiles": "O=C(NC(Nc1ncc(S(=O)(=O)c2ccc([N+](=O)[O-])cc2)s1)(C(F)(F)F)C(F)(F)F)c1ccc(Cl)cc1", "Potency": "active: 12.6 µM"},
      {"smiles": "Cc1ccc(NC(=O)CSC2=C(C#N)C(c3ccco3)C3=C(CCCC3=O)N2)cc1", "note": "(stereo not drawn)", "Potency": "inconclusive [inhibitor, full curve, poor fit]"},
      {"smiles": "Oc1ccc(-c2nc3ccccc3s2)c(O)c1", "Potency": "inconclusive [activator, single point]"},
      {"smiles": "Oc1ccc(/C=N/NC(=S)NC2CC3CCC2C3)cc1", "note": "(stereo not drawn)", "Potency": "inconclusive [activator, partial curve]"},
      {"smiles": "Cc1ccc(-n2c(C)cc(C3=NNC(=NC4CC4)SC3)c2C)cc1C", "Potency": "active: 10 µM"},
      {"smiles": "Cn1c(NC(=O)c2ccc(F)cc2)c(-c2ccccn2)c(=O)c2ccccc21", "Potency": "inconclusive [activator, single point]"},
      {"smiles": "O=C(O)CCCN1C(=O)/C(=C/c2cn(-c3ccccc3)nc2-c2cccs2)SC1=S", "Potency": "active: 3.16 µM"},
      {"smiles": "COC(=O)CSc1nc2sc3c(c2c(=O)n1-c1ccccc1)CCN(C)C3", "Potency": "inconclusive [inhibitor, full curve, poor fit]"},
      {"smiles": "CCOC(=O)c1c(NC(=O)CN2CCCCC2)sc2c1CCN(C(=O)OCC)C2", "Potency": "inconclusive [inhibitor, partial curve]"},
      {"smiles": "COc1cccc(OCC(=O)Nc2ccccc2NC(C)=O)c1", "Potency": "inactive"},
      {"smiles": "Cc1nn2c(N3CCOCC3)c3c(nc2c1-c1ccccc1)CCCC3", "Potency": "inconclusive [inhibitor, single point]"},
      {"smiles": "COc1ccc(Cn2nnnc2C(c2ccccn2)N2CCN(c3cc(Cl)ccc3C)CC2)cc1", "note": "(stereo not drawn)", "Potency": "inconclusive [inhibitor, partial curve]"},
      {"smiles": "N#Cc1c(N)nc2c(c1-c1ccncc1)CCCCC2", "Potency": "inconclusive [inhibitor, partial curve, poor fit]"},
      {"smiles": "O=C1c2ccccc2S(=O)(=O)N1CC(O)Cn1c2ccccc2c2ccccc21", "note": "(stereo not drawn)", "Potency": "inconclusive [inhibitor, single point]"},
      {"smiles": "Fc1ccc2nc(Nc3nc4c(s3)CCCC4)sc2c1", "Potency": "inconclusive [inhibitor, full curve, poor fit]"},
      {"smiles": "COc1ccc(C(=O)Nc2ccccc2C(=O)NCc2ccco2)cc1OC", "Potency": "inconclusive [inhibitor, single point]"},
      {"smiles": "CC(C)OC(=O)CSc1nc(-c2ccc(F)cc2)cc(C(F)(F)F)n1", "Potency": "inconclusive [inhibitor, partial curve, poor fit]"},
      {"smiles": "CCn1c(SCC(=O)Nc2ccc3c(c2)OCCO3)nnc1-c1ccccn1", "Potency": "inactive"},
      {"smiles": "CC1CCN(C(=O)CSc2nc3ccccc3c(=O)n2Cc2ccc3c(c2)OCO3)CC1", "Potency": "inconclusive [inhibitor, partial curve]"},
      {"smiles": "CCOC(=O)C1=C(C)NC(SCC(=O)Nc2cc(C)on2)=C(C#N)C1c1cccs1", "note": "(stereo not drawn)", "Potency": "inconclusive [inhibitor, partial curve]"},
      {"smiles": "CCCCCCSc1nnc(-c2cnn(-c3ccccc3)c2-n2cccc2)n1C", "Potency": "inconclusive [inhibitor, single point]"},
      {"smiles": "Cc1c(CNC2CCCC2)c(C(=O)O)c(C)n1Cc1ccccc1", "Potency": "inactive"},
      {"smiles": "Cc1ccsc1/C=N/n1c(-c2ccccn2)n[nH]c1=S", "Potency": "inactive"},
      {"smiles": "COc1cccc2cc(C(C)N(CCCN3CCOCC3)C(=O)Nc3ccc(Cl)cc3)oc12", "note": "(stereo not drawn)", "Potency": "inconclusive [inhibitor, single point]"},
      {"smiles": "CCOC(=O)CSc1nc2ccsc2c(=O)n1C1CCN(C(=O)OCC)CC1", "Potency": "inconclusive [inhibitor, full curve, poor fit]"},
      {"smiles": "CC1(C)Cc2c(C#N)c(N)n(-c3ccccc3)c(=O)c2CO1", "Potency": "inconclusive [activator, single point]"},
      {"smiles": "COc1ccc(N=Cc2sc3ccccc3c2Cl)cc1", "Potency": "inactive"},
      {"smiles": "COCC(=O)Nc1cc(OC)ccc1OC", "Potency": "inconclusive [inhibitor, single point]"},
      {"smiles": "CCCCc1ccc(-c2nc(-c3ccncc3)no2)cc1", "Potency": "inconclusive [activator, single point]"},
      {"smiles": "Cc1ccccc1CNS(=O)(=O)c1ccccc1[N+](=O)[O-]", "Potency": "inactive"},
      {"smiles": "FC(F)(F)c1nnc(-c2ccccc2)nc1Sc1ccccc1", "Potency": "inconclusive [inhibitor, single point]"},
      {"smiles": "Cc1cc(=O)oc2cc(OCC(=O)NCc3ccco3)ccc12", "Potency": "inactive"},
      {"smiles": "COC(=O)c1sccc1-c1ccc(C(=O)Nc2cccc(Cl)c2)o1", "Potency": "inconclusive [inhibitor, partial curve]"}
    ]}
  ]
}
